The supplement of paper PMC3334620
In all, about 33,000 sequences were measured (“E-score (-0.5 to 0.5)”: median about -0.021, highest 2% from about 0.32 on). This is one part of the list.

The sequences below were run against T1, Zap1 (UniProt P47043) (assay: PBM E-score (8-mer binding enrichment) (E-score (-0.5 to 0.5)); higher = stronger / more preferred TF binding; most listed sequences are background and not binding sites). Details: protein concentration: 200 nM; construct: GST-full length.
T1 sequence: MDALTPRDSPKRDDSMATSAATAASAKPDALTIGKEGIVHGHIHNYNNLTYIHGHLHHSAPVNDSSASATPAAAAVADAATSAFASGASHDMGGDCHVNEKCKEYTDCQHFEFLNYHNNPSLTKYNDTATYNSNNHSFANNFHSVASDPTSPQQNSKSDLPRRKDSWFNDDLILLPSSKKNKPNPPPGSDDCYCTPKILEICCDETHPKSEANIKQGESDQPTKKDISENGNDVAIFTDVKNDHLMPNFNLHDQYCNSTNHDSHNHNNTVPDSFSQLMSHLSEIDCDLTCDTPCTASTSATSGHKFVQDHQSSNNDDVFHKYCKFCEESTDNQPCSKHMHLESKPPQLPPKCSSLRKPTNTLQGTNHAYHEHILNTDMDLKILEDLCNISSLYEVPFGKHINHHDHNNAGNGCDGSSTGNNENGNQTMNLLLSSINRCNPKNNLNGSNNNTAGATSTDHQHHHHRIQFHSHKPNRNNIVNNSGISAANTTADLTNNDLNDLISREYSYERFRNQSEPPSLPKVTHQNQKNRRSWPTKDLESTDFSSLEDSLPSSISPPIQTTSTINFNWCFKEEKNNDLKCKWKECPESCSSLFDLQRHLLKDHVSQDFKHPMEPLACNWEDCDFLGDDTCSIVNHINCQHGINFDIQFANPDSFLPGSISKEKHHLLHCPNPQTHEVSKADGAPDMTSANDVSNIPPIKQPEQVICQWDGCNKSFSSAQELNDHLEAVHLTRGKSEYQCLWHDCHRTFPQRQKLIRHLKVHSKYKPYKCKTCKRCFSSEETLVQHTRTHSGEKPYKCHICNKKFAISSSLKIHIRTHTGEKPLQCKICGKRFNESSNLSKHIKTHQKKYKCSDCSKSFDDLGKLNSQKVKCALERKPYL
In short: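 GST-tagged yeast TFs (full-length or DNA-binding domain) were made by PURExpress in vitro transcription/translation and applied at about 100-200 nM to universal all-10-mer Agilent arrays. The arrays were made double-stranded by primer extension, on fresh or once-stripped slides. Bound protein was detected with fluorescent anti-GST, and scans were normalised with masliner. Each ungapped eight-base word, pooled with its reverse complement, received an E-score (modified Wilcoxon-Mann-Whitney statistic) from the Universal PBM Analysis Suite.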

Compared with AGATTCTA, CAAAGTAC is higher in “PBM E-score” value: -0.0432 for the first, 0.204 for the second.

First: CACGAATA
Second: AATTAAAC
The “PBM E-score” value of the first is lower: 0.0447 for the first, 0.148 for the second.

First: AGGCTTAG
Second: GCAAGGAA
The “PBM E-score” value of the first is lower: -0.0547 for the first, 0.00893 for the second.

Going from TAGTAATA to AGATGGGC, the “PBM E-score” value falls from 0.0882 to -0.171.

Going from ACTACCAT to ACTAGGGA, the “PBM E-score” value falls from 0.269 to -0.072.

First: AAGCTTAT
Second: AACAACAC
The “PBM E-score” value of the first is lower: -0.106 for the first, 0.151 for the second.

Compared with CCATTCGG, AAGAGACT is lower in “PBM E-score” value: 0.234 for the first, -0.107 for the second.

First: AGATATCT
Second: CTCGGTAA
The “PBM E-score” value of the first is lower: 0.0317 for the first, 0.13 for the second.

Compared with CATCAATA, ACCGATAT is higher in “PBM E-score” value: 0.0615 for the first, 0.0908 for the second.

Going from CGAAACCA to AACATTAC, the “PBM E-score” value falls from 0.176 to 0.0514.

First: CAATAGGA
Second: CGAACCCG
The “PBM E-score” value of the first is lower: -0.0819 for the first, 0.0694 for the second.

Going from ACAAACGC to ACGCCGAA, the “PBM E-score” value falls from -0.0115 to -0.204.

Compared with CTCATATA, CGCATCCC is lower in “PBM E-score” value: -0.0108 for the first, -0.134 for the second.

Going from GTTAAGTA to AATATCGA, the “PBM E-score” value falls from 0.159 to 0.0312.

Going from CGCCGGTA to CACGGGAG, the “PBM E-score” value falls from 0.0825 to -0.246.

First: CAGCCGAA
Second: ACGGGCCT
The “PBM E-score” value of the first is lower: -0.23 for the first, -0.0832 for the second.

First: GATCCGGC
Second: AAACTATT
The “PBM E-score” value of the first is lower: -0.159 for the first, 0.0503 for the second.

Going from CGCGAAAC to AGCGCAGA, the “PBM E-score” value falls from 0.0458 to -0.0767.

Going from CGTACGTA to GCATTCCA, the “PBM E-score” value falls from -0.0468 to -0.161.

Compared with ATGGTGAA, AAAACTAA is higher in “PBM E-score” value: -0.0722 for the first, 0.231 for the second.

Compared with CTGATGCA, ATGAATCC is higher in “PBM E-score” value: -0.119 for the first, -0.0638 for the second.

Going from ATCTTTAG to CCGATGAC, the “PBM E-score” value falls from 0.128 to -0.019.

First: TATACGCA
Second: CCACTCGG
The “PBM E-score” value of the first is higher: -0.0608 for the first, -0.104 for the second.

First: AGTCGCGC
Second: ACAGCGAT
The “PBM E-score” value of the first is higher: 0.0514 for the first, -0.135 for the second.

Compared with CGTCCTGC, CGATGACC is higher in “PBM E-score” value: -0.341 for the first, 0.305 for the second.

First: ACCAATTC
Second: CGGCTCCA
The “PBM E-score” value of the first is higher: 0.00864 for the first, -0.176 for the second.

Going from CAAACAGA to ATTCCGCC, the “PBM E-score” value falls from 0.108 to -0.128.

First: CATGTTGC
Second: CCAGTGCG
The “PBM E-score” value of the first is higher: -0.148 for the first, -0.279 for the second.

Compared with ATCTAGGA, ATGATAAG is higher in “PBM E-score” value: -0.0827 for the first, 0.135 for the second.

First: AATAAGGT
Second: ACAAGCGT
The “PBM E-score” value of the first is higher: 0.128 for the first, -0.161 for the second.

Compared with CCAACCCA, ATTCAGGC is lower in “PBM E-score” value: -0.0486 for the first, -0.084 for the second.

Compared with CCACGGTC, ACGACCAT is lower in “PBM E-score” value: -0.0824 for the first, -0.154 for the second.

Going from AAAGGCGA to GGCGCTAC, the “PBM E-score” value rises from -0.218 to -0.159.

Compared with ACACGGTG, CGGATCGA is lower in “PBM E-score” value: -0.121 for the first, -0.196 for the second.

Going from GTGCATCA to AGAGCGTC, the “PBM E-score” value falls from -0.11 to -0.146.

Compared with GGCAGCTA, AGGTCAAT is higher in “PBM E-score” value: -0.0584 for the first, 0.167 for the second.

Compared with CAGCCAAC, CTATATAA is higher in “PBM E-score” value: 0.0499 for the first, 0.24 for the second.

First: AGCGGTAT
Second: CAGAACTG
The “PBM E-score” value of the first is higher: 0.156 for the first, 0.116 for the second.

First: AATATTCT
Second: CGGACCCA
The “PBM E-score” value of the first is lower: 0.0276 for the first, 0.195 for the second.

Compared with AAGGCAGG, AACGTGAG is higher in “PBM E-score” value: -0.288 for the first, -0.0273 for the second.

Compared with ACTGTACA, TAAAAAAA is higher in “PBM E-score” value: -0.149 for the first, 0.223 for the second.

Compared with GGTTGAGA, TATCTGGA is lower in “PBM E-score” value: 0.0557 for the first, -0.169 for the second.

Compared with ACTTCTAC, AGCGTGTC is lower in “PBM E-score” value: -0.118 for the first, -0.204 for the second.
